Data as given in PubChem BioAssay AID360 (National Center for Advancing Translational Sciences (NCATS), 2006).
Hit rate of the full screen: of about 48,000 compounds, about 550 (1.1%) were called active. Another 4% or so got no clear call; they are omitted. No stated cut-off is given here; in the data, active means potency below about 15 µM; inconclusive means mostly about 16 µM to 33 µM; inactive means weaker than that. The list shows a part of the results.

biological target: Lysosomal acid glucosylceramidase (Homo sapiens) (UniProt P04062); experiment: Glucocerebrosidase; settings: purified enzyme, resorufin glucoside fluorescence (screen aimed at inhibitors), 20 min;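 further: the screen sought inhibitors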
Chain of UniProt P04062 (P04062 whole entry, looked up): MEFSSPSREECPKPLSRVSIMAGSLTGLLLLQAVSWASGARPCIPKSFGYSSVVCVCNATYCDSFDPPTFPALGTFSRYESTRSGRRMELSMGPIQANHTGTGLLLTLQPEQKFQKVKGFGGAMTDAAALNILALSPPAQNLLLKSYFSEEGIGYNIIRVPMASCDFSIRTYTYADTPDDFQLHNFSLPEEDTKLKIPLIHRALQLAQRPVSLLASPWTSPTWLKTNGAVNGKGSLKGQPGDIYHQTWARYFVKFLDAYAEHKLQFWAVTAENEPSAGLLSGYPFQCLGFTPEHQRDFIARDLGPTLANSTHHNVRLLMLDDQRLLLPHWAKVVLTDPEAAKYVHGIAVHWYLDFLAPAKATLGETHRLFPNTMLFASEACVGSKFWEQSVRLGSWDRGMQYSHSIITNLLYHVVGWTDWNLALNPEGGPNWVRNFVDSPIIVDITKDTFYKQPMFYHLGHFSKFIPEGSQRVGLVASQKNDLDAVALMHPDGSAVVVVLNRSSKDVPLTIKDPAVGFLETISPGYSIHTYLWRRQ
Summary of the method: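 Wild-type enzyme at 0.2 nM final in 50mM citric acid/KH2PO4, 10mM sodium taurocholate, 0.01% tween-20, pH 5.9, with resorufin beta-D-glucopyranoside at 30 uM final. Compounds titrated, 20 min at RT, red fluorescence read; AC50 from titration.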
Potency means the concentration at half of the fitted maximal effect.

| Compound | Potency |
| --- | --- |
| CC(=O)NC(CCS(C)(=O)=O)C(=O)Nc1ccc(F)cc1Cl (centres undefined) | inactive: > 76.9 µM |
| Cn1c(=O)cc(SCC(=O)N2CCN(Cc3ccc4c(c3)OCO4)CC2)c2ccccc21 | inactive: > 76.9 µM |
| O=c1[nH][nH]c(=O)c2cc(N3CCCC3)ccc12 | inactive: > 76.9 µM |
| O=c1cc(CN2CCN(Cc3ccccc3)CC2)c2cc(Cl)ccc2o1 | inactive: > 76.9 µM |
| COc1ccc(CNc2nc(NCc3ccc(OC)cc3)n(S(C)(=O)=O)n2)cc1 | inactive: > 76.9 µM |
| O=C1NCCCC1C(=O)Nc1cccc(C(F)(F)F)c1 (centres undefined) | inactive: > 76.9 µM |
| COc1cccc(N(CC(=O)N2CCN(C)CC2)S(=O)(=O)c2ccc(C)cc2)c1 | inactive: > 76.9 µM |
| O=C(CCCn1c(=O)c2sccc2n(CC(=O)NCc2ccco2)c1=O)NCc1ccco1 | inactive: > 76.9 µM |
| Clc1cccc(OCCN2CCOCC2)c1 | inactive: > 76.9 µM |
| O=C(O)c1ccc2c3c(ncnc13)-c1ccccc1C2=O | inactive: > 76.9 µM |
| COc1cccc(C(=O)CN2C3=NCCCN3c3ccccc32)c1 | inactive: > 76.9 µM |
| CC(C)OCCCNC(=O)CN1CCN(Cc2ccccc2Cl)C1=O | inactive: > 76.9 µM |
| CC(=O)c1ccc(-n2nnnc2SCC(=O)N2CCc3ccccc3C2)cc1 | inactive: > 76.9 µM |
| Cc1cc(N2CCOCC2)nc2ccc(NC(=O)CCC(=O)N3CCC(C)CC3)cc12 | active: 1.68 µM |
| N#CC1=C(N)N(c2ccccc2Sc2ccccc2)C(=O)C1 | inactive: > 76.9 µM |
| CCc1nnc(NC(=O)C2CCN(C(=O)NC3CCCCC3)CC2)s1 | inactive: > 76.9 µM |
| O=C(O)c1ccc2c(c1)C(=O)N(CCC1=CCCCC1)C2=O | inactive: > 76.9 µM |
| Cn1c(CNc2nc3ccccc3n2CCN2CCCCC2)nc2ccccc21 | inactive: > 76.9 µM |
| O=c1c2ccccc2c(/C=N/n2cnnc2)c(O)n1-c1ccccc1F | inactive: > 76.9 µM |
| CCOC(=O)N1CCN(c2ncnc3c2oc2nc(C(C)C)c4c(c23)CCC4)CC1 | inactive: > 76.9 µM |
| COc1cccc(C(=O)NC2CC3CCCC(C2)N3CC(=O)Nc2ccc(N(C)C)cc2)c1 (centres undefined) | inactive: > 76.9 µM |
| CCCn1c2c(c(O)c(C(=O)Nc3ncccc3C)c1=O)CCCC2 | inactive: > 76.9 µM |
| CC1CCN(Cc2nc3c(c(=O)n(C)c(=O)n3C)n2Cc2c(F)cccc2Cl)CC1 | inactive: > 76.9 µM |
| C[C@H](NC(=O)OC(C)(C)C)c1nnc(SCC(=O)c2ccc(Cl)cc2)o1 | inactive: > 76.9 µM |
